Experimental data from paper PMC4336329 (PLoS ONE, 2015).
Hit rate of the full screen: of about 310,000 compounds, about 2,200 (0.71%) showed an effect of 50% or more. The effect is printed as a negative number. The list shows a part of the results.

Molecular target: human ether-à-go-go-related gene (hERG) potassium channel (human, UniProt Q12809)
Assay: primary screen, population patch clamp on CHO cells stably expressing hERG

human ether-à-go-go-related gene (hERG) potassium channel, sequence (Q12809 whole entry, looked up): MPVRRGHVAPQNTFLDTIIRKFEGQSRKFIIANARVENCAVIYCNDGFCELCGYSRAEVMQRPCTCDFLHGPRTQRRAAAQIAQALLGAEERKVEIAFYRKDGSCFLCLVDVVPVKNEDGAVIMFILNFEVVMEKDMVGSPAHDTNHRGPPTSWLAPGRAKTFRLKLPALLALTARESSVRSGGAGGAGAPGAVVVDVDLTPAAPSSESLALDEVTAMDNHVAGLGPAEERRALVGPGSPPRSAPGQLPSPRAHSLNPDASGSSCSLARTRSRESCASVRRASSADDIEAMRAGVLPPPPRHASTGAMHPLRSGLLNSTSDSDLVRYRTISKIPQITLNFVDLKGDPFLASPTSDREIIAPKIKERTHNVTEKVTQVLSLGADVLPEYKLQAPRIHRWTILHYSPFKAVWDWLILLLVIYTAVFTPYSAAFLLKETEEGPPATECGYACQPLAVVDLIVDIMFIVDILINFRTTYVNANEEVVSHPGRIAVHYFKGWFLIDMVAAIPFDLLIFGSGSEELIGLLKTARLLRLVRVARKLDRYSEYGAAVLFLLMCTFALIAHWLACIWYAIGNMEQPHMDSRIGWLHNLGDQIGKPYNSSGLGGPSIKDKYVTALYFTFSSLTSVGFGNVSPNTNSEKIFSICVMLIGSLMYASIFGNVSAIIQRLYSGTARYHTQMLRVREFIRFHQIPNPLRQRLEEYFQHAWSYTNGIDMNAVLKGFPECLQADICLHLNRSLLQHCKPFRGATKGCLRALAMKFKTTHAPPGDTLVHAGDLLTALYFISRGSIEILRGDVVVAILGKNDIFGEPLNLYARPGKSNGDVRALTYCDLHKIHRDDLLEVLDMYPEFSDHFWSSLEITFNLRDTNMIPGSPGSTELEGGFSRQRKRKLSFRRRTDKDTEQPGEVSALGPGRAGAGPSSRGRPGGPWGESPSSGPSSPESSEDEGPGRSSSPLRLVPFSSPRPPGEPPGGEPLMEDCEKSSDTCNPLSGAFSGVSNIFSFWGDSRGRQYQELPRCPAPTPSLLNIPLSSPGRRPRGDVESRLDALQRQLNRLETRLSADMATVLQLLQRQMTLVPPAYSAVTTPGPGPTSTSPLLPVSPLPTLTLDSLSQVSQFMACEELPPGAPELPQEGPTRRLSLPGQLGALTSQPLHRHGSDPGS

SMILES | hERG current change (%, negative = inhibition) at 1uM [%]
CNS(=O)(=O)c1cccc(C(=O)OCC(=O)Nc2ccccc2F)c1 | -0.168
O=C(c1ccccc1)N1CCN(C(=O)c2cc3nc(-c4ccccc4)cc(C(F)(F)F)n3n2)CC1 | 4.91
Fc1ccc(NC(=S)N2CCc3[nH]c4ccccc4c3C2)cc1 | 9.31
Cc1cc(=O)n2[nH]c(-c3ccc(F)cc3)nc2n1 | 14.4
COc1ccc(C(=O)Nc2nccs2)cc1OC | 0.458
CCOC(=O)c1cnc(SC)nc1Sc1ccc(Cl)cc1Cl | -0.374
Cc1ccc2c(c1)C(=O)C(=O)N2CC(=O)Nc1ccccc1NC(=O)c1ccccn1 | 1.58
CCOC(=O)COc1ccc(S(=O)(=O)Nc2cccc(SC)c2)cc1 | -1.68
CCOC(=O)Nc1sc(C)c(C)c1C(=O)OCC | 13.4
Cc1ccc(C(=O)C2CN3CCC2CC3)cc1.Cl (stereo not drawn) | -8.7
CCS(=O)(=O)N1CCN(c2ccccc2F)CC1 | 29.6
CCn1cc(C(=O)NCc2ccc3c(c2)OCO3)c(=O)c2cc(F)c(N3CCN(C(=O)c4ccco4)CC3)cc21 | 6.56
COCCn1nnnc1C1(N(Cc2cc3cc(C)ccc3[nH]c2=O)CC2CCCO2)CCN(C)CC1 (stereo not drawn) | 3.81
Cn1cc(CN2CCC(C(O)c3cccs3)CC2)c(-c2cccc(Cl)c2)n1 (stereo not drawn) | -2.58
Cc1ccc(S(=O)(=O)NCCC(=O)OCC(=O)NC(=O)c2cccn2C)cc1 | 6.53
COc1cc(C(CCN2CCCC2)c2c(OC)cc(OC)c3c(-c4ccccc4)cc(=O)oc23)cc(OC)c1OC (stereo not drawn) | -10.9
Cc1cccc(N2CC(C)Cn3c2nc2c3c(=O)[nH]c(=O)n2C)c1 (stereo not drawn) | 3.18
CCOc1ccc(C(=O)NCC(=O)NCC(c2ccc(OC)cc2)N2CCOCC2)cc1OCC (stereo not drawn) | 14.2
CCN(CC)c1ccc2nc3c4ccccc4c(=O)cc-3oc2c1 | 15.4

SMILES | hERG current change (%, negative = inhibition) at 1uM [%]
CN1C(=O)N(C)C(=O)C2(Cc3ccccc3N3CCCC32)C1=O (stereo not drawn) | 13.3
Cc1cccc(CSCc2ccc(C(=O)NC(C)C)o2)c1 | 14.9
CN(C)S(=O)(=O)c1ccc(NC(=O)CN2CCc3ccccc32)cc1 | 18
CCOc1ccc(NC(=O)C2CCCCN2S(=O)(=O)c2ccccc2)cc1 (stereo not drawn) | -1.61
COc1ccccc1NC(=O)CC(NCc1ccccc1)C(=O)O (stereo not drawn) | 6.6
Cc1ccc(-c2ccc(=O)n(CCC(=O)N3CCC4(CC3)OCCO4)n2)cc1 | -38.6
S=C(NNc1ccc2ccccc2c1)NC1CCCCC1 | 15.1
COc1ccc2[nH]c(C(=O)NCCCn3ccnc3)cc2c1 | 6.88
COC(=O)c1ccccc1N(C)S(=O)(=O)c1cc2c(cc1C)OCC(=O)N2 | 5.7
COc1ccccc1C(=O)Nc1sc2c(c1C#N)CCC2 | 5.02
Cc1cccc(Cc2ccc(Cl)nn2)c1 | 13.2
Cc1noc(C)c1COC(=O)CCCOc1ccc(Cl)cc1Cl | 14.8
CCOc1ccc2[nH]c(C)c(CN3CCN(CC)CC3)c(=O)c2c1 | 12.8
COc1ccc(-c2cc(C(F)(F)F)nc(SCC(=O)NCCCN3CCOCC3)n2)cc1 | -3.6
Cc1ccc(O)c(CCc2ccc(O)cc2)n1.Cl | 5.83
CC(=O)c1ccc(-n2nncc2-c2ccc([N+](=O)[O-])cc2)cc1 | 3.64
CCC(=O)Nc1cccc(NC(=O)CSc2nnnn2C2CCCC2)c1 | 1.01
NC(=O)c1nsc(C(=O)N(c2cccc(F)c2)C(C(=O)NC2CCCC2)c2ccc(O)cc2)c1N (stereo not drawn) | 15.7
O=C(NC1CCCc2ccccc21)c1c(F)cccc1Cl (stereo not drawn) | 9.5

SMILES | hERG current change (%, negative = inhibition) at 1uM [%]
Nc1ccc(NC(=O)c2ccccc2)c2c1C(=O)c1ccccc1C2=O | 15.2
Cn1c(=O)c2c(nc(SCC(=O)c3ccc(F)cc3)n2C)n(C)c1=O | 1.25
Cc1ccc(NC(=O)CSCC(=O)N=c2sccn2C)cc1 | 8.85
NC(=S)N/N=C/c1ccc(C(F)(F)F)cc1 | 10.7
O=C(N/N=C/c1cc2c(cc1Cl)OCO2)c1ccncc1 | 19.5
CCN(CC)CC#CCC1(O)c2ccccc2-c2ccccc21.Cl | 7.63
Cc1ccc(NC(=O)Cn2nc(C(F)(F)F)c3c2CCC3)cc1 | 7.59
O=C(O)CCc1ccc(S(=O)(=O)NCCc2ccccc2)cc1 | 3.76
Cc1cc(C(=O)CSc2nc3ccccc3[nH]2)c(C)n1C | 1.76
Cc1ccccc1CNC(=O)c1ccccc1N(C)S(=O)(=O)c1ccccc1 | 16.5
O=C(NC(Cc1c[nH]c2ccccc12)C(=O)N/N=C/c1cccc2ccccc12)c1cccs1 (stereo not drawn) | -5.36
COC(=O)CC1C(=O)NCCN1C(=O)Nc1ccccc1 (stereo not drawn) | 11.5
O=C(C1CCN(S(=O)(=O)N2CCOCC2)CC1)N1CCN(c2ccc(F)cc2)CC1 | -2.08
C[C@@H](C(=O)NCC1CC1)[C@H]1C[C@]1(C)[C@H](NC(=O)OCc1ccccc1)c1ccccc1 | 2.79
COCCNc1nnc(SCC(=O)NC(=O)c2ccccc2)s1 | 0.415
Cc1ccc(S(=O)(=O)N2CCN(c3ccccc3)CC2)cc1C(N)=O | -52
COc1cccc(NC(=O)C(OC(=O)c2ccc([N+](=O)[O-])o2)c2ccccc2)c1 (stereo not drawn) | 14.2
CC(C)C(=O)NCCc1nc2ccccc2n1CCc1ccccc1 | 13.4
Cc1ccc(CN2CCNC(=O)C2CC(=O)NCC(F)(F)F)o1 (stereo not drawn) | 12.5
